Results reported in paper PMC6919601, “Identification of Plasmodium dipeptidyl aminopeptidase allosteric inhibitors by high throughput screening” (PLoS ONE, 2019).
Like-named read-outs stand apart in the source and are kept apart here.

Assays:
[1] = system: WI-38 primary lung fibroblast; test: cells; parameters: Cell toxicity screen in WI-38 primary lung fibroblasts at 10 uM (SMDC assay 440); settings: Homo sapiens, sheet All cpds;, SMDC cell toxicity assay 440
DPAP1 [2] = molecular target: T1, DPAP1 (Plasmodium falciparum, UniProt Q8IIJ9); test: biochemical; type: biochemical; settings: for inhibition at 10 µM: read-out: DPAP1 % Inhibition @ 10 uM
T1 sequence (Q8IIJ9 370-599 limits assumed): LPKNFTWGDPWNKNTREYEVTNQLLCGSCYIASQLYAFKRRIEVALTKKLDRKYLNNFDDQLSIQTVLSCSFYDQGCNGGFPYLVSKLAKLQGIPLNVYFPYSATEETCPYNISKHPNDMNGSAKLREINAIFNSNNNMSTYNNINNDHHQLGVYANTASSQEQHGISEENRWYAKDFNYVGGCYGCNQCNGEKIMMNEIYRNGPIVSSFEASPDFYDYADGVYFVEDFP
T1 sequence (Q8IIJ9 28-209 limits assumed): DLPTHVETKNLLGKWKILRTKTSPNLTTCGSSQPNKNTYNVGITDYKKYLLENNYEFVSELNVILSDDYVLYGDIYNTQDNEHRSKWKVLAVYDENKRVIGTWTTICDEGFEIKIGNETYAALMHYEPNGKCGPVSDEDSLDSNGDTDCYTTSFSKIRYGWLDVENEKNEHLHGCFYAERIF
T1 sequence (Q8IIJ9 600-700 limits assumed): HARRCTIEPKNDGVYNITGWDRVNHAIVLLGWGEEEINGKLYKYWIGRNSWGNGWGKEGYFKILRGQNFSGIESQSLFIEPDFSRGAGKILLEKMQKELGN

[3] = system: WI-38 primary lung fibroblast; settings: cited from earlier work
DPAP1 [4] = molecular target: T1, DPAP1; settings: false positive, i.e. no inhibition at 100 mM (footnote b); 10 μM (PR)2Rho, continuous assay
FP3 [5] = molecular target: T2, FP3 (Plasmodium falciparum, UniProt Q8IIL0); settings: for Selectivity towards FP3 compared to FP2: ratio of IC50 values; for Maximum % Inhibition FP3: substrate at Km; for IC50: read-out: IC50 FP3, FP3 1 nM, Z-LR-AMC at Km (20 μM), N.I. = no inhibition
T2 sequence (Q8IIL0 243-492): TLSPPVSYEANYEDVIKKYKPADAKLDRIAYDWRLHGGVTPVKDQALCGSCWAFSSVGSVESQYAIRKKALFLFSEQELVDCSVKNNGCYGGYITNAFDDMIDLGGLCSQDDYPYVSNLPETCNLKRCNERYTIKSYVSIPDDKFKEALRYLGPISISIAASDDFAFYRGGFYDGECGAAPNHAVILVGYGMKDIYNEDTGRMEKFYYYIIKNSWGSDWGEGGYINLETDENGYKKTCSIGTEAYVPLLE

CatC = CatC (Bos taurus, UniProt Q3ZCJ8); test: Mechanism of inhibition studies, CatC; type: biochemical, bovine; settings: for CatC β: factor by which kcat (Vmax) is modified at saturating inhibitor
Chain of CatC (Q3ZCJ8 231-394 limits assumed): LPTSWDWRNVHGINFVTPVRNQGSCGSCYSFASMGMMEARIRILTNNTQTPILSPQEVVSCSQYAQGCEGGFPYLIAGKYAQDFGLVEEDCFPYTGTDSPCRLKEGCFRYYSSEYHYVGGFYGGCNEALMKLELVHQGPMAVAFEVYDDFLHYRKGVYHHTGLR
Chain of CatC (Q3ZCJ8 25-134 limits assumed): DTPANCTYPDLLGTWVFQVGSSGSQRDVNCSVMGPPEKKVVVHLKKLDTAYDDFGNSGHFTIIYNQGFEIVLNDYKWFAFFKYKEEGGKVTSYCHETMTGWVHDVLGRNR
Chain of CatC (Q3ZCJ8 395-463 limits assumed): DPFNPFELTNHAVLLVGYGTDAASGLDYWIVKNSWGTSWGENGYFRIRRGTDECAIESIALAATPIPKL

DPAP1 [6] = molecular target: T1, DPAP1; test: biochemical; type: biochemical; settings: for DPAP1 inhibition Model: COM competitive, UNC uncompetitive, P-M partial mixed, P-C partial competitive, P-NC partial non-competitive, P-U partial uncompetitive; for DPAP1 α: factor by which Km is modified at saturating inhibitor; for DPAP1 β: factor by which kcat (Vmax) is modified at saturating inhibitor; for Ki: global fit to MOI model, standard error of fit in parentheses
FP3 [7] = molecular target: T2, FP3; test: biochemical; settings: for Emax: 0.5 h, read-out: Maximum % Inhibition FP3, substrate at Km
DPAP1 [8] = molecular target: T1, DPAP1; test: biochemical; type: biochemical; settings: for Emax: 0.5 h, read-out: Maximum % Inhibition DPAP1; for Emax / Maximum % Inhibition DPAP1: VR-ACC at Km, > = inhibition at the highest concentration, no baseline reached
DPAP3 [9] = molecular target: T3, DPAP3 (Plasmodium falciparum, UniProt Q8I1Y2); test: biochemical; settings: 0.5 h, read-out: Maximum % Inhibition DPAP3
T3 sequence (Q8I1Y2 entry or part of it): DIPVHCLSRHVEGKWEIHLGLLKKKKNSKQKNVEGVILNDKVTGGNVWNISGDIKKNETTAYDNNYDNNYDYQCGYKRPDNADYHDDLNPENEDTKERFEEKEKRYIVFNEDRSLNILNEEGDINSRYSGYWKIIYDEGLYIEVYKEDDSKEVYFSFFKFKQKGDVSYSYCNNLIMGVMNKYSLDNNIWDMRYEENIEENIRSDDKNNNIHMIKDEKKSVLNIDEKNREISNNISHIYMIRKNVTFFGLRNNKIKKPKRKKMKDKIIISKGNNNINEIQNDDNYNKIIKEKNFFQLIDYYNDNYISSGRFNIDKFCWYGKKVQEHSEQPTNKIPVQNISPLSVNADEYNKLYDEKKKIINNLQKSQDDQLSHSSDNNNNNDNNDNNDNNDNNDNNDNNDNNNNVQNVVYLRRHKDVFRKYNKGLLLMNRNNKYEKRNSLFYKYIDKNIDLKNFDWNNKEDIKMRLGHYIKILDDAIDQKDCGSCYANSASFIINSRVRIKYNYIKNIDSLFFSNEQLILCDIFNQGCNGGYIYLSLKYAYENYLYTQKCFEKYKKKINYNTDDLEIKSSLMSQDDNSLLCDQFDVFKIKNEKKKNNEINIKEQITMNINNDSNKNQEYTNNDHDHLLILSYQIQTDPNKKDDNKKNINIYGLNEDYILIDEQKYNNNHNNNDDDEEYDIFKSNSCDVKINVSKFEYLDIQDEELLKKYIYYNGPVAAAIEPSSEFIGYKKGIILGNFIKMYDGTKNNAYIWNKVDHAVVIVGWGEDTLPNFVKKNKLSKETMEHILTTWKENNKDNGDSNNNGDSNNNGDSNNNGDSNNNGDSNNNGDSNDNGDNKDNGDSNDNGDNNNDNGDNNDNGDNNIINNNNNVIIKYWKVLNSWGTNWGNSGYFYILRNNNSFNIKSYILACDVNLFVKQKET

P. falciparum = test: Standard 72 h parasite replication assay; type: cell-based, Plasmodium falciparum; settings: 72h replication assay; for inhibition at 100 µM: read-out: Pf % Inh @ 100 μM; for EC50: 3 biological replicates, read-out: Pf EC50
DPAP3 [10] = molecular target: T3, DPAP3; settings: substrate at Km
bovine CatC = bovine CatC (Bos taurus, UniProt Q3ZCJ8); test: Dose response inhibition assay, CatC with GR-AMC substrate; settings: for Emax: 0.5 h, read-out: Maximum % Inhibition CatC, substrate at Km; for Maximum % Inhibition CatC: substrate at Km
Chain of bovine CatC (Q3ZCJ8 231-394 limits assumed): as the sequence (Q3ZCJ8 231-394 limits assumed) above
Chain of bovine CatC (Q3ZCJ8 25-134 limits assumed): as the sequence (Q3ZCJ8 25-134 limits assumed) above
Chain of bovine CatC (Q3ZCJ8 395-463 limits assumed): as the sequence (Q3ZCJ8 395-463 limits assumed) above

[11] = system: human foreskin fibroblast cells; test: Cytotoxicity assay, CellTiter-Glo; settings: 24h treatment, 4 biological replicates
FP3 [12] = molecular target: T2, FP3; test: biochemical; type: biochemical; settings: for FP3 α: factor by which Km is modified at saturating inhibitor
DPAP1 [13] = molecular target: T1, DPAP1; test: biochemical; parameters: Endpoint HTS of DPAP1 in P. falciparum trophozoite lysate, (PR)2Rho cleavage, fluorescence 523 nm, 10 uM compound; settings: read-out: % inhibition
[14] = 10 μM compound, parasite lysates, (PR)2Rho, 30 min end-point
[15] = COM competitive, UNC uncompetitive, P-M partial mixed, P-C partial competitive, P-NC partial non-competitive, P-U partial uncompetitive
[16] = purified DPAP1 1 nM, VR-ACC at Km (20 μM), standard error in parentheses, ~ = approximate, concentration with 50% inhibition
[17] = read-out: IC50 CatC, CatC 1 nM, GR-AMC at Km (40 μM), N.I. = no inhibition

CC(=O)Nc1ccc(Oc2ccc(NC(C)=O)c(NC(C)=O)c2)cc1 [SMDC103191, CC(=O)Nc1ccc(Oc2ccc(NC(=O)C)c(NC(=O)C)c2)cc1]
inhibition at 10 µM [1]: 13.3% | inhibition at 10 µM (DPAP1 [2]; [14]): 71% | Cell Toxicity WI-38 primary lung fibroblast %Inhibition @ 10 uM ([3]; 10 uM, ref SMDC Assay #440): 13% | DPAP1 inhibition on re-test of purchased compound (DPAP1 [4]): False Positive

COc1ccc(S(=O)(=O)N2CCSC2c2ccccc2Cl)cc1 (stereo not drawn) [SMDC112387, COc1ccc(cc1)S(=O)(=O)N2CCSC2c3ccccc3Cl]
inhibition at 10 µM [1]: 9.9% | inhibition at 10 µM (DPAP1 [2]): 69% | Cell Toxicity WI-38 primary lung fibroblast %Inhibition @ 10 uM ([3]; 10 uM, ref SMDC Assay #440): 10% | DPAP1 inhibition on re-test of purchased compound (DPAP1 [4]): False Positive

CSc1nc(S)c2c3c(sc2n1)CCC3 [SMDC153437A, CSC1=NC(S)=C2C3=C(CCC3)SC2=N1]
Selectivity towards FP3 compared to FP2 (FP3 [5]): more than 50 fold | Maximum % Inhibition FP3 (FP3 [5]): fully inhibits | CatC inhibition Model (CatC; [15]): P-M | Effect on CatC activity at saturating concentrations of substrate (CatC; Fig 5H): increases the activity of CatC | CatC α (CatC; factor by which Km is modified at saturating inhibitor): 2.6 (0.6) | CatC β (CatC): > 1 | CatC β (CatC; listed as 153437A): 1.7 (0.1) | Ki (CatC; global fit to MOI model, standard error of fit in parentheses, read-out: CatC Ki): 2400 nM | DPAP1 inhibition Model (DPAP1 [6]): P-M | DPAP1 α (DPAP1 [6]): 4.0 (1.5) | DPAP1 β (DPAP1 [6]; listed as 153437A): 0.35 (0.05) | Ki (DPAP1 [6]): 60 nM | IC50 (FP3 [7]): 2300 nM | Emax (FP3 [7]): 100% | IC50 (DPAP1 [8]): 270 nM | Emax (DPAP1 [8]): 80% | Emax (DPAP3 [9]): 100% | inhibition at 100 µM (P. falciparum; Plasmodium falciparum, 100 μM): 28% | Maximum % Inhibition DPAP3 (DPAP3 [10]): fully inhibits | IC50 (bovine CatC): 1200 nM | Emax (bovine CatC): 47%

Cc1cc(Oc2nc3ccccn3c(=O)c2/C=C(\C#N)c2nc3ccccc3[nH]2)ccc1Cl [SMDC158196, Cc1cc(OC2=C(\C=C(/C#N)\c3nc4ccccc4[nH]3)C(=O)N5C=CC=CC5=N2)ccc1Cl]
inhibition at 10 µM (DPAP1 [2]; [14]): 92% | Cell Toxicity WI-38 primary lung fibroblast %Inhibition @ 10 uM ([3]; 10 uM, ref SMDC Assay #440): -2% | DPAP1 inhibition on re-test of purchased compound (DPAP1 [4]): False Positive

Cc1cccc(-n2c(C)cc(/C=C3\C(=N)N4N=C(S(C)(=O)=O)SC4=NC3=O)c2C)c1 [SMDC168863, Cc1cccc(c1)n2c(C)cc(\C=C/3\C(=O)N=C4SC(=NN4C3=N)S(=O)(=O)C)c2C]
inhibition at 10 µM [1]: 4.9% | inhibition at 10 µM (DPAP1 [2]; [14]): 53% | Cell Toxicity WI-38 primary lung fibroblast %Inhibition @ 10 uM ([3]; 10 uM, ref SMDC Assay #440): 5% | DPAP1 inhibition on re-test of purchased compound (DPAP1 [4]): False Positive, PAIN

Cc1ccsc1CCN1CSC2=C(C#N)C(c3ccc(Cl)cc3)CC(=O)N2C1 (stereo not drawn) [SMDC178801, Cc1ccsc1CCN2CSC3=C(C#N)C(CC(=O)N3C2)c4ccc(Cl)cc4]
Tox EC50 / Cytox EC50 [11]: 52 (9) μM | Selectivity towards FP3 compared to FP2 (FP3 [5]): more than 50 fold | FP3 inhibition Model (FP3 [12]; [15]): P-M | FP3 α (FP3 [12]): < 1 | FP3 α (FP3 [12]; listed as 178801): 0.22 (0.09) | FP3 β (FP3 [12]; factor by which kcat (Vmax) is modified at saturating inhibitor): 0.09 (0.03) | Ki (FP3 [12]; global fit to MOI model, standard error of fit in parentheses, read-out: FP3 Ki): 6600 nM | DPAP Primary hit (Hit = 1) (DPAP1 [2]; 10 μM HTS, 0 not defined): 1 | inhibition at 10 µM (DPAP1 [2]; [14]): 52% | DPAP1 inhibition Model (DPAP1 [6]): P-C | DPAP1 α (DPAP1 [6]; listed as 178801): 3.2 (0.2) | DPAP1 β (DPAP1 [6]): = 1 | Ki (DPAP1 [6]): 360 nM | IC50 (FP3 [7]): 69 nM | Emax (FP3 [7]): 93% | IC50 (DPAP1 [8]): 900 nM | Emax (DPAP1 [8]): 75% | Emax (DPAP3 [9]): 20% | inhibition at 100 µM (P. falciparum; Plasmodium falciparum, 100 μM): 78% | EC50 (P. falciparum; Plasmodium falciparum): 31000 nM | IC50 (bovine CatC): 110 nM | Emax (bovine CatC): 48% | Cell Toxicity WI-38 primary lung fibroblast %Inhibition @ 10 uM ([3]; 10 uM, ref SMDC Assay #440): -6%

CC[C@H](NC(=O)[C@H](CS(=O)(=O)Cc1ccccc1)O[Si](C(C)C)(C(C)C)C(C)C)C(=O)c1nc2ccccc2o1 [compound 280693, CRA-016024]
inhibition at 10 µM (DPAP1 [13]): -0.214%

Brc1ccc(cc1)C(=O)c2nocc2C(=O)c3cccnc3 [SMDC112054]
Tox EC50 / Cytox EC50 [11]: 350 (100) μM | IC50 (FP3 [5]): 520 nM | Maximum % Inhibition FP3 (FP3 [5]): 100 (2) % | DPAP1 % Inhibition @ 10 uM (DPAP1 [2]; [14]): 92% | DPAP1 inhibition Model (DPAP1 [6]): COM | DPAP1 α (DPAP1 [6]): = ∞ | Ki (DPAP1 [6]): 440 nM | Maximum % Inhibition DPAP1 (DPAP1 [8]): 100 (1) % | IC50 (DPAP1 [8]; [16]): 2700 nM | Pf % Inh @ 100 μM (P. falciparum; 100 μM): 83 (9) % | EC50 (P. falciparum): 35000 nM | Maximum % Inhibition DPAP3 (DPAP3 [10]): > 35% | IC50 (bovine CatC; [17]): 900 nM | Maximum % Inhibition CatC (bovine CatC): 100 (3) % | Cell Toxicity WI-38 primary lung fibroblast %Inhibition @ 10 uM ([3]; 10 uM, ref SMDC Assay #440): 12%

FC(F)(F)c1cc(nc(SCC(=O)N2CCOCC2)c1C#N)c3cccs3 [SMDC97214]
IC50 (FP3 [5]): 680 nM | Maximum % Inhibition FP3 (FP3 [5]): fully inhibits | Maximum % Inhibition FP3 (FP3 [5]; listed as 97214): 97 (3) % | DPAP1 % Inhibition @ 10 uM (DPAP1 [2]; [14]): 73% | DPAP1 inhibition Model (DPAP1 [6]): COM | DPAP1 α (DPAP1 [6]): = ∞ | Ki (DPAP1 [6]): 3000 nM | Maximum % Inhibition DPAP1 (DPAP1 [8]): fully inhibits | Maximum % Inhibition DPAP1 (DPAP1 [8]; listed as 97214): 100 (3) % | IC50 (DPAP1 [8]; [16]): 7200 nM | Maximum % Inhibition DPAP3 (DPAP3 [10]): > 70% | IC50 (bovine CatC; [17]): 110 nM | Maximum % Inhibition CatC (bovine CatC): 80% | Maximum % Inhibition CatC (bovine CatC; listed as 97214): 78 (1) % | Cell Toxicity WI-38 primary lung fibroblast %Inhibition @ 10 uM [3]: -2%
